# Assay results: the supplement of paper PMC9446081
# The whole screen tested about 39,000 compounds, of which about 220 (0.56%) showed activity. This is one part of the list.
# Tested on: Escherichia coli K-12 BW25113
# Experiment: relative growth (OD600 normalised to plate interquartile mean) (fraction); higher = less growth inhibition, active = 0.2 or less
# Details: 50 µM; LB; incubation time: overnight (16-24 h)
# 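Further: static incubation at 37 °C against the wild-type strain, values averaged over two biological replicates.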
row,Compound,relative growth
1,C[C@@H]1CN([C@@H](C)CO)C(=O)Cc2cc(NC(=O)CCN3CCOCC3)ccc2O[C@@H]1CN(C)S(=O)(=O)c1cccs1,inactive: 0.989
2,O=C1NC[C@@H](c2ccccc2)OC(=O)[C@H](Cc2ccc(F)cc2)CCC=CC[C@@H]1CC(=O)N(CCO)Cc1ccccc1,inactive: 1.01
3,C[C@@H]1CCCCO[C@@H](CN(C)C(=O)CCC(F)(F)F)[C@H](C)CN([C@@H](C)CO)C(=O)c2cc(NC(=O)c3ccccc3)ccc2O1,inactive: 1.02
4,CC(C)C1=CC2=CC[C@H]3[C@](C)(CO)CCC[C@]3(C)[C@@H]2CC1,inactive: 1.04
5,C[C@@H]1CCCCO[C@@H](CN(C)Cc2ccc(C(F)(F)F)cc2)[C@H](C)CN([C@H](C)CO)C(=O)c2cc(NS(=O)(=O)c3ccccc3)ccc2O1,inactive: 1.02
6,C[C@H]1CCCCO[C@H](CN(C)Cc2ccc(C(=O)O)cc2)[C@@H](C)CN([C@@H](C)CO)C(=O)c2cc(NS(=O)(=O)c3cccs3)ccc2O1,inactive: 1.04
7,CN1CCN(C(=O)C[C@@H]2CC[C@H](NC(=O)Cc3ccccn3)[C@H](CO)O2)CC1,inactive: 1
8,C[C@H](CO)N1C[C@H](C)[C@@H](CN(C)S(=O)(=O)c2ccccc2)Oc2ccc(NS(C)(=O)=O)cc2CC1=O,inactive: 0.99
9,Cc1noc(C)c1NC(=O)Nc1ccc2c(c1)C(=O)N([C@H](C)CO)C[C@H](C)[C@@H](CN(C)Cc1ccc(Oc3ccccc3)cc1)O2,inactive: 0.987
10,COc1ccc(NC(=O)N(C)C[C@H]2Oc3ccc(NC(=O)C4CC4)cc3C(=O)N([C@H](C)CO)C[C@H]2C)cc1,inactive: 1.01
11,C[C@H](CO)N1C[C@H](C)[C@@H](CN(C)C(=O)Nc2ccccc2)OCCCC[C@H](C)Oc2ccc(NC(=O)NC3CCCCC3)cc2C1=O,inactive: 1.02
12,COc1ccc(NC(=O)N(C)C[C@@H]2Oc3ncc(C#CCN(C)C)cc3C(=O)N([C@@H](C)CO)C[C@@H]2C)cc1,inactive: 1.02
13,C[C@H](CO)N1C[C@H](C)[C@@H](CN(C)C(=O)NC2CCCCC2)OCCCC[C@H](C)Oc2ccc(NC(=O)Cc3ccccc3)cc2C1=O,inactive: 0.977
14,C[C@H]1CN([C@@H](C)CO)C(=O)Cc2cc(NC(=O)CCCCCC(=O)Nc3ccccc3N)ccc2O[C@@H]1CN(C)C(=O)Nc1ccc(F)cc1,inactive: 0.985
15,C[C@@H]1CN([C@H](C)CO)C(=O)c2cc(C#Cc3cccnc3)cnc2O[C@@H]1CN(C)S(=O)(=O)c1ccccc1F,inactive: 0.975
16,C[C@H]1CN([C@@H](C)CO)C(=O)c2cc(NC(=O)CCN3CCOCC3)ccc2O[C@@H]1CN(C)Cc1ccncc1,inactive: 1.03
17,O=C(N[C@H](c1ccc(F)cc1)c1ccc2ccccc2n1)C1CCN(Cc2cccc(C(F)(F)F)c2)CC1,inactive: 1.02
18,C[C@@H]1CN([C@@H](C)CO)C(=O)c2cc(NC(=O)Nc3ccc4c(c3)OCO4)ccc2O[C@@H]1CN(C)Cc1ccc(Cl)c(Cl)c1,inactive: 1.03

row,Compound,relative growth
1,CCCNC(=O)N(C)C[C@H]1Oc2ncc(-c3ccc(C(=O)N(C)C)cc3)cc2C(=O)N([C@@H](C)CO)C[C@@H]1C,inactive: 0.977
2,COc1cccc(S(=O)(=O)Nc2ccc3c(c2)C(=O)N(C)C[C@@H](OC)[C@@H](C)CN(C(=O)Cc2cccnc2)[C@@H](C)CO3)c1,inactive: 1.02
3,CC(C)NC(=O)N[C@@H]1CC[C@H](CCN)O[C@@H]1CO,inactive: 1
4,C[C@@H]1CN([C@@H](C)CO)C(=O)c2cc(NC(=O)Nc3ccc(F)cc3)ccc2O[C@@H](C)CCCCO[C@@H]1CN(C)C(=O)Nc1ccc2c(c1)OCO2,inactive: 1.04
5,C[C@H]1CCCCO[C@H](CN(C)C(=O)c2ccccc2)[C@@H](C)CN([C@@H](C)CO)C(=O)c2cc(NS(=O)(=O)c3ccccc3)ccc2O1,inactive: 0.998
6,C[C@@H]1CN([C@@H](C)CO)C(=O)c2c(c3ccccc3n2C)-c2ccccc2CO[C@@H]1CN(C)S(=O)(=O)c1ccc(Cl)cc1,inactive: 1.02
7,C[C@@H]1CN([C@H](C)CO)C(=O)c2cccc(NC(=O)C3CC3)c2O[C@H]1CN(C)C(=O)NC1CCCCC1,inactive: 1.01
8,COc1ccccc1NC(=O)Nc1ccc2c(c1)OC[C@@H](C)N(Cc1ccccc1C(=O)O)C[C@@H](C)[C@H](OC)CN(C)C2=O,inactive: 0.997
9,C[C@H]1CCCCO[C@H](CN(C)C(=O)NC2CCCCC2)[C@@H](C)CN([C@@H](C)CO)C(=O)c2cc(NC(=O)Nc3ccc4c(c3)OCO4)ccc2O1,inactive: 1.01
10,C[C@@H]1CN([C@@H](C)CO)C(=O)c2cc(NC(=O)Nc3ccc(C(F)(F)F)cc3)ccc2O[C@H]1CN(C)C(=O)Nc1cccc2ccccc12,inactive: 1.01
11,C[C@@H]1CN([C@H](C)CO)C(=O)CCCn2cc(nn2)CO[C@H]1CN(C)C(=O)Nc1cccc2ccccc12,inactive: 0.992
12,COc1ccc(CN(C)C[C@@H]2Oc3ccc(NC(=O)CCN4CCOCC4)cc3C(=O)N([C@H](C)CO)C[C@H]2C)cc1,inactive: 1.03
13,Cc1ccc(S(=O)(=O)N(C)C[C@H]2Oc3c(NC(=O)c4cc(C)nn4C)cccc3C(=O)N([C@@H](C)CO)C[C@@H]2C)cc1,inactive: 0.98
14,NCCCCCNC(=O)[C@@H]1C[C@@H]2C(=O)N[C@@H](CCCCN)C(=O)N2[C@@H]1c1cccc(OCCO)c1,inactive: 1.01
15,CC(C)=CCCC1(C)C=Cc2c(O)c3c(c(CC=C(C)C)c2O1)OC12C(=CCCC1C(C)(C)OC2(CC=C(C)C(=O)O)C(=O)O)C3=O (stereo unspecified),inactive: 1.09
16,C[C@H]1CN([C@@H](C)CO)C(=O)c2cccc(NC(=O)C3CCCCC3)c2O[C@@H]1CN(C)Cc1ccc(Oc2ccccc2)cc1,inactive: 1.01
17,COc1ccc(S(=O)(=O)N2C[C@H](O)COC[C@@H]3O[C@@H](CC(=O)NCCN4CCCCC4)CC[C@H]32)cc1,inactive: 1.02
18,C[C@@H]1CCCCO[C@H](CN(C)C(=O)C2CCCCC2)[C@H](C)CN([C@@H](C)CO)C(=O)c2cc(NC(=O)Nc3ccc(F)cc3)ccc2O1,inactive: 1.03
